# Measurements published in ChEMBL document CHEMBL4888484, “Replenishing the malaria drug discovery pipeline: Screening and hit evaluation of the MMV Hit Generation Library 1 (HGL1) against asexual blood stage Plasmodium falciparum ,using a nano luciferase reporter read-out” (2022).
# Screen size: about 150,000 compounds; about 540 (0.36%) showed an effect of 50% or more. The list shows a part of the results.
# System: Plasmodium falciparum
# Assay: Primary screen in NF54 nanoGlo assay, in single point, at 2uM, 72h; a lower Z score goes with more inhibition
# Format: functional, Erythrocyte
# Conditions: timepoint 72 hour
SMILES,% Inhibition,Z score
NC(=O)Cc1ccc(OCc2noc(C(=O)NCc3ccncc3)n2)cc1,30%,-3.44
COCCN1C[C@@H](c2nc(C(C)C)no2)CCC1=O,-1%,0.22
CCc1onc(C)c1[C@@H]1CCCN1Cc1ccc(OC(C)C)c(OC)c1,-2%,0.28
O=C(Nc1cccc(-c2cnc3n2CCC3)c1)c1ccc(F)cc1F,-14%,2.16
CC(C)(C)c1nnc(N2C[C@@H]3[C@H](C2)[C@H]2CC[C@@H]3O2)o1,-1%,0.2
CCCc1nc(-c2cc3cccc(C)c3nc2NCCN2CCc3ccccc3C2)no1,11%,-1.57
Cc1coc(-c2cc(NCc3cccc(O)c3)ccc2C)n1,-15%,2.36
O=C(Cn1cc(S(=O)(=O)N2CCOCC2)ccc1=O)Nc1ccc(F)cc1Cl,4%,-0.76
CC1CN(CC(=O)Nc2nccs2)CC(C)O1 (stereo unspecified),-45%,5.29
O=C(c1ccccc1)N(CCN1CCOCC1)C1CCOCC1,-12%,1.92
CN(CC1CC(O)C1)C(=O)Nc1c(F)cccc1Oc1ccccc1 (stereo unspecified),-17%,2.77
COCCn1nnnc1[C@]1(N(C)C)CCCN(S(=O)(=O)c2ccc(F)cc2F)C1,-12%,1.64
Cn1nccc1NC(=O)Cn1ncc2cc(-c3cccc4cccnc34)ccc21,0%,-0.05
CC(C)NS(=O)(=O)NCCNC(=O)C1CCCCCC1,-1%,0.11
O=S(=O)(NCC1(c2ccccn2)CC1)c1c(Cl)ccc2scnc12,-3%,0.45
C[C@H]1CN(C(=O)c2oc3ccccc3c2Cn2cccn2)CC(=O)N1,2%,-0.3
CC(C(=O)Nc1ccc(S(=O)(=O)N2CCOCC2)cc1)N1CCCC1c1ccsc1 (stereo unspecified),26%,-3.28
Cn1c(Cl)c[n+](C)c1[C@H](O)c1ccccc1,27%,-3.03
Clc1cncc(Oc2ncc(Br)cn2)c1,14%,-1.82
Cc1ccc(C)c(NC(=O)N2Cc3c(C)nn(-c4ccccc4)c3-n3cccc3[C@H]2c2ccccc2)c1,-11%,2.08
FC(F)(F)c1ccccc1-n1nc(C2CC2)nc1-c1csnn1,-3%,0.5
Cc1ccc(CCNC(=O)COc2cccnc2)o1,-17%,2.93
CC1(C)C[C@@H](c2ccccc2)N(C(=O)Nc2ncc(C3CCOCC3)s2)C1,-4%,0.48
